Data on 86 sequences can be found in the supplement of paper PMC3334620.

Whole data set: some 33,000 sequences, median “E-score (-0.5 to 0.5)” near -0.021, cut for the highest 2% near 0.32. The list shows a part of the results.

The target in this experiment is T1, Zap1 (UniProt P47043).
T1 sequence: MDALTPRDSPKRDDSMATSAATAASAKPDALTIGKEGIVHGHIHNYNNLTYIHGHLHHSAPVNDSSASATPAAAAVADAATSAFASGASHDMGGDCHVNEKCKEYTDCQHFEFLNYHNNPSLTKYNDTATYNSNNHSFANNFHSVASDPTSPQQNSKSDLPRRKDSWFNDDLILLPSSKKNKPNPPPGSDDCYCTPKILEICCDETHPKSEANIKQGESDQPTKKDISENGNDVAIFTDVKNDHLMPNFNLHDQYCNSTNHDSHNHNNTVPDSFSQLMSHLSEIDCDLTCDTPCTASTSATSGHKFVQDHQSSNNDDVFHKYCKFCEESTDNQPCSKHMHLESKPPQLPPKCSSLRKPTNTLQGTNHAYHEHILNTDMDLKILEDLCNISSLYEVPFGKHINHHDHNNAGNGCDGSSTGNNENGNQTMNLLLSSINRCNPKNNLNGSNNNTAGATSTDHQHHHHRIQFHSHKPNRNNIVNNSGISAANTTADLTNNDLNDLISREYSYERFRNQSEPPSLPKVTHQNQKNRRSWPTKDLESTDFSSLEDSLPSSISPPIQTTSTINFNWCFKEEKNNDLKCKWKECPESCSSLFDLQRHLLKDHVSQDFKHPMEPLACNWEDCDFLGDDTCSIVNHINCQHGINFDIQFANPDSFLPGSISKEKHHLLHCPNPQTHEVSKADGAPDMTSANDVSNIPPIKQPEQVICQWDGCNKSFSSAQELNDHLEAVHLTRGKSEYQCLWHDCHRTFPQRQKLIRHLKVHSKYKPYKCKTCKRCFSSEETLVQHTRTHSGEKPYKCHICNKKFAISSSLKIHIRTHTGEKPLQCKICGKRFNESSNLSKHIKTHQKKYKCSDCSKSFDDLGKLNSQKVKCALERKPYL
As to the kind of experiment: PBM E-score (8-mer binding enrichment) (E-score (-0.5 to 0.5)); higher = stronger / more preferred TF binding; most listed sequences are background and not binding sites. The note with it: protein concentration: 200 nM; construct: GST-full length. The gist of the method:
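The E-score, a modified Wilcoxon-Mann-Whitney statistic, was computed by the Universal PBM Analysis Suite for every ungapped eight-base word pooled with its reverse complement. Scans behind it were normalised with masliner after bound GST-tagged yeast transcription factors were detected with fluorescent anti-GST. The proteins, at about 100-200 nM, had been applied to universal all-10-mer Agilent arrays made double-stranded by primer extension.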
As for GTTAGACA, the “PBM E-score” value was 0.128.

In the case of AACGCGAA, the “PBM E-score” value turned out to be 0.179.

Turning to GTCGAGTA, the “PBM E-score” value is -0.0846.

For ACGCCGCC, the “PBM E-score” value was -0.28.

In the case of AGTGAGTA, the “PBM E-score” value worked out at 0.183.

Take CTTGGCTA: the “PBM E-score” value was -0.116.

For CCCAGGAA, the “PBM E-score” value was -0.0899.

As for CCACCCTC, the “PBM E-score” value came out at 0.358.

ATGCCGAA: the “PBM E-score” value is -0.116.

For ATTCGAAT, the “PBM E-score” value is 0.126.

For the sequence ACGTTGCA, the “PBM E-score” value was -0.0204.

Turning to GAAGACGA, the “PBM E-score” value is -0.183.

For the sequence GACCCCGC, the “PBM E-score” value was found to be 0.0879.

Turning to ACTATTTG, the “PBM E-score” value worked out at 0.165.

In the case of AGTGGACG, the “PBM E-score” value stood at 0.0699.

As to AACCTGTA, the “PBM E-score” value was 0.324.

On to GTAACTAC, for which the “PBM E-score” value amounted to 0.3.

As to AAATCTCT, the “PBM E-score” value is -0.0767.

For the sequence CGGAGGCA, the “PBM E-score” value is -0.116.

With CGACAGAC, the “PBM E-score” value is -0.0148.

For ATTCCGAC, the “PBM E-score” value amounted to 0.0318.

For CGAAGCCA, the “PBM E-score” value is -0.154.

In the case of AGGTACAA, the “PBM E-score” value amounted to 0.15.

Consider GCGCCTTA, for which the “PBM E-score” value is -0.066.

Take AACCACAA: the “PBM E-score” value came to 0.34.

Take AGCAATTA: the “PBM E-score” value was 0.132.

Regarding GGTGAACA, the “PBM E-score” value was -0.231.

In the case of AACTGAGG, the “PBM E-score” value is 0.205.

On to AATGACTG, for which the “PBM E-score” value was -0.145.

Turning to ACGTTCCA, the “PBM E-score” value is -0.0687.

With ACGCAATC, the “PBM E-score” value is -0.0245.

In the case of CCTGGACG, the “PBM E-score” value is -0.101.

As for AACTAGGT, the “PBM E-score” value turned out to be 0.178.

AGCTGGCG: the “PBM E-score” value is -0.283.

Turning to CCCCACTC, the “PBM E-score” value was -0.119.

Take ACCTGCTC: the “PBM E-score” value is -0.0883.

On to CATGTAAC, for which the “PBM E-score” value was determined as 0.191.

For TAGAGTGA, the “PBM E-score” value was found to be 0.0251.

Turning to AGACTAAT, the “PBM E-score” value is -0.105.

As for ACCAGATA, the “PBM E-score” value was found to be 0.219.

Take CACCAATA: the “PBM E-score” value was found to be 0.108.

On to CGCACGTC, for which the “PBM E-score” value was -0.14.

GAGCCGTA: the “PBM E-score” value was -0.081.

As to GCAATTCA, the “PBM E-score” value was -0.0856.

Take CAAAGGAA: the “PBM E-score” value was found to be 0.0643.

As to CATTTGGG, the “PBM E-score” value was determined as 0.0343.

Consider AAGTCTAT, for which the “PBM E-score” value was -0.0715.

In the case of AGGTATCG, the “PBM E-score” value amounted to 0.206.

For the sequence CGCTATTA, the “PBM E-score” value is -0.0112.

With CTGGGGTC, the “PBM E-score” value turned out to be 0.266.

Consider AAGAGGTA, for which the “PBM E-score” value is 0.272.

In the case of GACATCTC, the “PBM E-score” value is -0.0894.

As for AACGCTTA, the “PBM E-score” value was -0.126.

Take CGTTGTAG: the “PBM E-score” value is -0.0486.

As to TATGCGAA, the “PBM E-score” value came out at 0.143.

For the sequence CTTAGGCA, the “PBM E-score” value was -0.175.

Regarding ACCGTCAC, the “PBM E-score” value stood at 0.139.

As for ACGCATAA, the “PBM E-score” value is -0.0273.

Take ACACATTA: the “PBM E-score” value was -0.154.

On to GCCACTAC, for which the “PBM E-score” value was -0.0479.

Regarding AGCCCTGG, the “PBM E-score” value was -0.193.

With GGCCCTCA, the “PBM E-score” value was -0.102.

GGCACGTA: the “PBM E-score” value was -0.273.

For AGTCGGAG, the “PBM E-score” value was -0.0634.

On to CTTTCGAC, for which the “PBM E-score” value is -0.0437.

Regarding ATACGGGG, the “PBM E-score” value came out at 0.00834.

On to GCAACGGC, for which the “PBM E-score” value was -0.0373.

Regarding ATCAGAAC, the “PBM E-score” value came out at 0.0575.

Regarding AAACTGGC, the “PBM E-score” value is -0.269.

As for CCTTGCGA, the “PBM E-score” value was 0.132.

For the sequence AGCTGGCA, the “PBM E-score” value is -0.0191.

Take AGGGGGTA: the “PBM E-score” value was determined as 0.0442.

For the sequence ATTATACC, the “PBM E-score” value stood at 0.338.

As for TGACCCAA, the “PBM E-score” value was found to be 0.302.

CTCTAGTC: the “PBM E-score” value is -0.0908.

Regarding ATATTGCA, the “PBM E-score” value is 0.0217.

As for TAGCCAAA, the “PBM E-score” value amounted to 0.0689.

For the sequence GCCTTCAA, the “PBM E-score” value is -0.0467.

With ATATCGCC, the “PBM E-score” value was -0.0515.

Regarding AGTGCATG, the “PBM E-score” value is -0.244.

With CCTAGCGC, the “PBM E-score” value was -0.0463.

For the sequence AACACACT, the “PBM E-score” value was -0.0742.

CAACCGTC: the “PBM E-score” value came to 0.0248.

Turning to ACTTTCAC, the “PBM E-score” value is 0.0623.

With ACAAAGCT, the “PBM E-score” value turned out to be 0.0945.

For the sequence AATAGTAG, the “PBM E-score” value turned out to be 0.0797.
